# Test results taken from PubChem BioAssay AID1460 (National Center for Advancing Translational Sciences (NCATS), 2008).
# “And” between values parts separate entries of the source, which are not always exact repeats. Equal values may be shown once. In all, about 270,000 compounds went through this assay and about 5,800 (2.1%) were called active. Roughly 16% stayed inconclusive and do not appear here. Calls come from the whole dose curve; as a rule, active = well fitted inhibition curve with a large enough effect; inconclusive = small, poorly fitted or top-dose-only effect; inactive = flat fitted curve, though single readings scatter. The list shows a part of the results, in another mix than the full data. More than one record can exist for a structure, and the calls need not agree.
# Biological target: Microtubule-associated protein tau (Homo sapiens) (UniProt P10636)
# UniProt P10636, sequence (P10636 whole entry, looked up): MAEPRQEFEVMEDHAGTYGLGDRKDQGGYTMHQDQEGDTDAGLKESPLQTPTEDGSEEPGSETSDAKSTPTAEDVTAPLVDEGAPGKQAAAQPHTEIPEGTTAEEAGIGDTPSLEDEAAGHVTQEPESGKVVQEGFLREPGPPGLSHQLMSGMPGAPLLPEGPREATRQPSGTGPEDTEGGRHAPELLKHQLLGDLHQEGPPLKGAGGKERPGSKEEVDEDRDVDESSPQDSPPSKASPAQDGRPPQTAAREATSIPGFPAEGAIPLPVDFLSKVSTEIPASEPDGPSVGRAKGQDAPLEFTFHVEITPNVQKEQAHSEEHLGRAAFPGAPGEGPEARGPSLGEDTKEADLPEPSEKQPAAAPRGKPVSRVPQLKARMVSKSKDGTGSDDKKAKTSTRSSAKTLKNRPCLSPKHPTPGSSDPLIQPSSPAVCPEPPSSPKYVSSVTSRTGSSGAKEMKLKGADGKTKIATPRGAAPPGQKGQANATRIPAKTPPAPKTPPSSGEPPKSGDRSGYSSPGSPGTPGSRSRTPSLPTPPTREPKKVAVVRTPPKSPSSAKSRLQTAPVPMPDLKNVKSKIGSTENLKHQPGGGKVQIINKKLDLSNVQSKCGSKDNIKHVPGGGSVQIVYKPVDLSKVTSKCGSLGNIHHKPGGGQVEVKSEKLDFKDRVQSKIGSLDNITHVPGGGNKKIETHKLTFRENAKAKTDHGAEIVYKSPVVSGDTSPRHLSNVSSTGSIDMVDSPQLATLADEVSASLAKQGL
# Test: qHTS for Inhibitors of Tau Fibril Formation, Thioflavin T Binding; note: nearly all actives have a fitted effect of over 55% in size
# Conditions: recombinant tau K18 P301L (four-repeat tau fragment), heparin-induced fibrillization, ThT fluorescence; series mostly up to 57.4 µM; activity, negative = inhibition: at the top concentration
# Outline: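 Aggregation was driven by heparin (20 uM final) acting on recombinant tau […] bearing P301L in 100 mM sodium acetate pH 7; fibrils were detected with Thioflavin T.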
# % is set by controls: 0 for no effect and ±100 for the full control effect; potency is the fitted concentration of half-maximal effect.
Structure (SMILES),Potency,"activity, negative = inhibition"
CN(C)CCC=C1c2ccccc2CCc2ccccc21,inactive,
CC(=O)OC1C2C(OC(=O)Cc3ccccc3)C(C)CC2(OC(C)=O)C(=O)/C(C)=C/C2C(CC[C@@]13CO3)C2(C)C (stereo partly drawn),,inactive: 3.95%
NN=C(N)N,inactive,
CN[C@@H]1C[C@H](c2ccc(Cl)c(Cl)c2)c2ccccc21,,inactive: -23.1%
N#CC(C#N)=NNc1ccc(OC(F)(F)F)cc1,active: 3.98 µM and active: 7.94 µM,
C[C@]12CCC3C(CC[C@H]4C[C@H](O)CC[C@]34C)C1CC[C@@H]2C(=O)CO (stereo partly drawn),,inactive: -17%
Oc1ccc2c3c1O[C@H]1c4[nH]c5ccccc5c4C[C@]4(O)[C@H](C2)N(CC2CC2)CC[C@@]314,,inactive: -14.9%
COC(=O)c1cc2c(cn1)[nH]c1ccccc12,,inactive: -15.1%
CC(N)C(O)c1ccc(O)c(O)c1 (stereo not drawn),,inactive: -13.1%
CC1=NN=C(c2ccc(N)cc2)c2cc3c(cc2C1)OCO3,,inactive: -12.1%
NC[C@H](CP(=O)(O)O)c1ccc(Cl)cc1,,inactive: -7.66%
CN1CCC[C@H]1c1cccnc1,inactive,
CC1OC(OC2C(O)CC(OC3C(O)CC(OC4CCC5(C)C(CCC6C5CCC5(C)C(C7=CC(=O)OC7)CCC65O)C4)OC3C)OC2C)CC(O)C1O (stereo not drawn),,inactive: -22.5%
O=C1NCN(c2ccccc2)C12CCN(CCCOc1ccc(F)cc1)CC2,inactive,
COC(=O)[C@@H]1C[C@@]1(C)[C@@H](NP(=O)(c1ccccc1)c1ccccc1)c1ccccc1,,inactive: -1.6%
O=C(O)CNC(=O)C(CS)Cc1ccccc1 (stereo not drawn),,inactive: -11.3%
Oc1c(Br)cc(Br)cc1Oc1ccc(Br)cc1Br,active: 31.6 µM,

Structure (SMILES),Potency,"activity, negative = inhibition"
C/C(=C/C=C/[C@@H](C)C(=O)O)[C@H]1CN[C@H](C(=O)O)[C@H]1CC(=O)O,,inactive: -8.62%
COc1ccc(CCCc2nnc(SCC(=O)Nc3ccc(C)c(C)c3)o2)cc1,,inactive: -8.29%
N#CC(C#N)=Cc1cc(O)c(O)c([N+](=O)[O-])c1,active: 10 µM and active: 17.8 µM,
C=CCN1CC[C@@]23c4c5ccc(O)c4O[C@H]2/C(=N\N=C2/CC[C@@]4(O)[C@H]6Cc7ccc(O)c8c7[C@@]4(CCN6CC=C)[C@@H]2O8)CC[C@]3(O)[C@@H]1C5,,inactive: -14%
CNC(C)[C@@H](O)c1ccccc1 (stereo partly drawn),,inactive: -1.27%
CSc1ccc(C(c2c(O)c3ccccc3oc2=O)c2c(C)n(C)n(-c3ccccc3)c2=O)cc1 (stereo not drawn),,inactive: -7.29%
CC(C)(O)[C@H]1O[C@H]2CC[C@@]3(C)[C@@](O)(CC[C@H]4Cc5c([nH]c6ccccc56)[C@@]43C)C2=CC1=O,,inactive: -13.6%
COc1cc(CNC(=O)CCCC/C=C/C(C)C)ccc1O,inactive,
CN1CCN(C(=O)O[C@H]2c3nccnc3C(=O)N2c2ccc(Cl)cn2)CC1,,inactive: -3%
COc1ccc(-n2c(=S)[nH]c3c(sc(=S)n3-c3ccccc3)c2=O)c(OC)c1,active: 31.6 µM,
CN(C)[C@@H]1C(=O)C(C(N)=O)=C(O)[C@@]2(O)C(=O)C3=C(O)c4c(O)cccc4[C@@](C)(O)C3CC12 (stereo partly drawn),,inactive: -9.02%
CC(CCC(=O)O)C1CCC2C3CC[C@H]4CC(O)CC[C@@]4(C)C3CC[C@@]12C (stereo partly drawn),,inactive: -16.6%
CC(=O)OC1CCC2(C)C3=C(CCC2C1(C)C)[C@@]1(C)CCC(C(C)CCC=C(C)C)[C@@]1(C)CC3 (stereo partly drawn),,inactive: -12.3%
CN1CC[C@@]2(c3cccc(O)c3)Cc3nc4ccccc4cc3C[C@H]2C1,,inactive: -8.59%
CCn1c(NN=O)nc2ccccc21,active: 28.2 µM,
Cc1ccc2cc3c(ccc4ccccc43)c3c2c1CC3,active: 15.8 µM,
